The target of experiment [1] is T1, Chromosomally encoded C-terminally His-tagged DauA (E. coli K-12) (UniProt P0AFR2).
T1 sequence: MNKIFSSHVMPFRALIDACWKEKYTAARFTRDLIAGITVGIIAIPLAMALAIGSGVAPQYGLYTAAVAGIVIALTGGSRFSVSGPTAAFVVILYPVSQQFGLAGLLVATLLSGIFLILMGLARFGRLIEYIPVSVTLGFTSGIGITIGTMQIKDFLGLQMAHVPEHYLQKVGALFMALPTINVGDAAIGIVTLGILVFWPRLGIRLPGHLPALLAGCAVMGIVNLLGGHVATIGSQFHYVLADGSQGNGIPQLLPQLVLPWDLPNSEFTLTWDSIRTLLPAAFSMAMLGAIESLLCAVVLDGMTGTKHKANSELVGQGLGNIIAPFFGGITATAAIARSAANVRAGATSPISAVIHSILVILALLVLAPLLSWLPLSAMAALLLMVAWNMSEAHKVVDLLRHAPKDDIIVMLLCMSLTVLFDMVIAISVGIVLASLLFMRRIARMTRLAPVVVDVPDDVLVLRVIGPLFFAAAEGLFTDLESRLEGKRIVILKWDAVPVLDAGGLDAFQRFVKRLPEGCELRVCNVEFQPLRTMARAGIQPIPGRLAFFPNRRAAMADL
The experiment is described as follows: pull-down; EK9 membrane proteins (2% DDM) incubated with cobalt sepharose beads 1 h at 4 °C; DauA-His eluted with 500 mM imidazole; elution fractions blotted with anti-His, anti-FLAG and anti-DcuS.

Experiment [2] concerns the target T2, DctA fused to the T18 or T25 domain of adenylate cyclase (E. coli) (UniProt P0A830).
T2 sequence: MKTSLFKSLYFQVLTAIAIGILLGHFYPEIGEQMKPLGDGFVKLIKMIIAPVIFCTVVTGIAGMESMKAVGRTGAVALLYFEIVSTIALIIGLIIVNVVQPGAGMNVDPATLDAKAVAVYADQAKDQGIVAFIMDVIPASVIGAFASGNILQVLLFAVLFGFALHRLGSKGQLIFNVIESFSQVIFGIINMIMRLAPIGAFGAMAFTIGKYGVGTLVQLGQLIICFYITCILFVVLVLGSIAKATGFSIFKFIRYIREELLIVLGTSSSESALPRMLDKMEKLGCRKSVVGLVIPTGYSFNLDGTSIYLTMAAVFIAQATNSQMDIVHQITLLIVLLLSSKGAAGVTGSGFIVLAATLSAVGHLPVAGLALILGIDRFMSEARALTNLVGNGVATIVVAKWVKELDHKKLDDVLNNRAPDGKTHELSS
The experiment is described as follows: two-hybrid; bacterial two-hybrid (BTH): T18 and T25 fusions co-transformed in E. coli BTH101 (cyaA-), grown overnight in LB at 30 °C; beta-galactosidase activity; background below 150 Miller units; the reporter strain expresses chromosomal DctA and DcuS.

The target in experiment [3] is T3, Chromosomally encoded FLAG-tagged DctA (E. coli K-12) (UniProt P0A830).
T3 sequence: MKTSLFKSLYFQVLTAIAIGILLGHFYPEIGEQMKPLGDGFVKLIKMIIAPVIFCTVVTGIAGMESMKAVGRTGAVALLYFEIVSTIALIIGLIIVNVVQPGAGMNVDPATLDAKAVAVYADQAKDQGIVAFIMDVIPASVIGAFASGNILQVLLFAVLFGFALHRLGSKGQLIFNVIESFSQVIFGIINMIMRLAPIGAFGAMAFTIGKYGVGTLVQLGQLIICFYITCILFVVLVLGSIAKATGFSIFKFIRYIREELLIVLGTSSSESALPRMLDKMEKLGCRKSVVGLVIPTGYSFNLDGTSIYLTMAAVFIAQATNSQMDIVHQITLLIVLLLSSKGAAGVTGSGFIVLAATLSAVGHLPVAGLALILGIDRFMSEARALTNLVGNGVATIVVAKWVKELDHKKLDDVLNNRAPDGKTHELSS
The experiment is described as follows: co-IP; IMAC elution fractions of EK9 re-purified on anti-FLAG M2 affinity gel, eluted with 0.1 M glycine HCl pH 3; blots with anti-His and anti-FLAG.

In experiment [4] the target is T4, DauA fused to the T18 or T25 domain of adenylate cyclase (E. coli) (UniProt P0AFR2).
T4 sequence: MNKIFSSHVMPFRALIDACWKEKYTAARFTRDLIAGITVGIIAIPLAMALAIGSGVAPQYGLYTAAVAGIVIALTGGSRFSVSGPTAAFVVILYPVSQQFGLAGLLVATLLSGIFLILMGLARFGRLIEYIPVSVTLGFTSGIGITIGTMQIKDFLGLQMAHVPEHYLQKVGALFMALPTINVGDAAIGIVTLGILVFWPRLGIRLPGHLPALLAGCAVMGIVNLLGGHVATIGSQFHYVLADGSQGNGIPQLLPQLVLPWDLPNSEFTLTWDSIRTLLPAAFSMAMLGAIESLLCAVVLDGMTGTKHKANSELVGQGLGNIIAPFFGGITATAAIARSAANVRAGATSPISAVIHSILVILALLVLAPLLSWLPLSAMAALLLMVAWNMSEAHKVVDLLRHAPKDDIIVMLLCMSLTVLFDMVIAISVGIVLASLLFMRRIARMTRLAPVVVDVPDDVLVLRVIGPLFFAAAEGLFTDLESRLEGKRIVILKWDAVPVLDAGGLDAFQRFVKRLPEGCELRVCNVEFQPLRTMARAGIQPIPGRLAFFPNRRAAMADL
Put plainly: two-hybrid; bacterial two-hybrid (BTH): T18 and T25 fusions co-transformed in E. coli BTH101 (cyaA-), grown overnight in LB at 30 °C; beta-galactosidase activity; background below 150 Miller units; the reporter strain expresses chromosomal DctA and DcuS.

These are yes or no findings as the source states them, for the method shown. For part of these data: In cells and extracts the contact can be indirect. Some binding calls cover weakened binding; strength is not graded here. Sequences can lack the tags named with a protein.

Our source for the binding values is publication PMC5703999, “The E. coli dicarboxylic acid transporters DauA act as a signal transducer by interacting with the DctA uptake system” (Scientific Reports, 2017).

B1: Chromosomally encoded FLAG-tagged DctA (protein, UniProt P0A830 1-428)
chain: MKTSLFKSLYFQVLTAIAIGILLGHFYPEIGEQMKPLGDGFVKLIKMIIAPVIFCTVVTGIAGMESMKAVGRTGAVALLYFEIVSTIALIIGLIIVNVVQPGAGMNVDPATLDAKAVAVYADQAKDQGIVAFIMDVIPASVIGAFASGNILQVLLFAVLFGFALHRLGSKGQLIFNVIESFSQVIFGIINMIMRLAPIGAFGAMAFTIGKYGVGTLVQLGQLIICFYITCILFVVLVLGSIAKATGFSIFKFIRYIREELLIVLGTSSSESALPRMLDKMEKLGCRKSVVGLVIPTGYSFNLDGTSIYLTMAAVFIAQATNSQMDIVHQITLLIVLLLSSKGAAGVTGSGFIVLAATLSAVGHLPVAGLALILGIDRFMSEARALTNLVGNGVATIVVAKWVKELDHKKLDDVLNNRAPDGKTHELSS
B1: the binding entry in experiment [1] was “binds”.

B2: Isolated STAS domain of DauA fused to the T18 or the T25 domain of adenylate cyclase (domain or fragment, UniProt P0AFR2 449-559)
chain: APVVVDVPDDVLVLRVIGPLFFAAAEGLFTDLESRLEGKRIVILKWDAVPVLDAGGLDAFQRFVKRLPEGCELRVCNVEFQPLRTMARAGIQPIPGRLAFFPNRRAAMADL
As to B2, the binding entry in experiment [2] is recorded as “no binding”.

B3: Chromosomally encoded C-terminally His-tagged DauA (protein, UniProt P0AFR2 1-559)
chain: MNKIFSSHVMPFRALIDACWKEKYTAARFTRDLIAGITVGIIAIPLAMALAIGSGVAPQYGLYTAAVAGIVIALTGGSRFSVSGPTAAFVVILYPVSQQFGLAGLLVATLLSGIFLILMGLARFGRLIEYIPVSVTLGFTSGIGITIGTMQIKDFLGLQMAHVPEHYLQKVGALFMALPTINVGDAAIGIVTLGILVFWPRLGIRLPGHLPALLAGCAVMGIVNLLGGHVATIGSQFHYVLADGSQGNGIPQLLPQLVLPWDLPNSEFTLTWDSIRTLLPAAFSMAMLGAIESLLCAVVLDGMTGTKHKANSELVGQGLGNIIAPFFGGITATAAIARSAANVRAGATSPISAVIHSILVILALLVLAPLLSWLPLSAMAALLLMVAWNMSEAHKVVDLLRHAPKDDIIVMLLCMSLTVLFDMVIAISVGIVLASLLFMRRIARMTRLAPVVVDVPDDVLVLRVIGPLFFAAAEGLFTDLESRLEGKRIVILKWDAVPVLDAGGLDAFQRFVKRLPEGCELRVCNVEFQPLRTMARAGIQPIPGRLAFFPNRRAAMADL
Consider B3, for which the binding entry in experiment [3] was “binds”.

B4: DauA(1-444), truncated DauA lacking the STAS domain, two-hybrid fusion (domain or fragment, UniProt P0AFR2 1-444)
chain: MNKIFSSHVMPFRALIDACWKEKYTAARFTRDLIAGITVGIIAIPLAMALAIGSGVAPQYGLYTAAVAGIVIALTGGSRFSVSGPTAAFVVILYPVSQQFGLAGLLVATLLSGIFLILMGLARFGRLIEYIPVSVTLGFTSGIGITIGTMQIKDFLGLQMAHVPEHYLQKVGALFMALPTINVGDAAIGIVTLGILVFWPRLGIRLPGHLPALLAGCAVMGIVNLLGGHVATIGSQFHYVLADGSQGNGIPQLLPQLVLPWDLPNSEFTLTWDSIRTLLPAAFSMAMLGAIESLLCAVVLDGMTGTKHKANSELVGQGLGNIIAPFFGGITATAAIARSAANVRAGATSPISAVIHSILVILALLVLAPLLSWLPLSAMAALLLMVAWNMSEAHKVVDLLRHAPKDDIIVMLLCMSLTVLFDMVIAISVGIVLASLLFMRRIAR
As to B4, the binding entry in experiment [2] is “binds”.

B5: AmtB (ammonium transporter), two-hybrid fusion (natural protein, UniProt P69681 1-428, looked up)
chain: MKIATIKTGLASLAMLPGLVMAAPAVADKADNAFMMICTALVLFMTIPGIALFYGGLIRGKNVLSMLTQVTVTFALVCILWVVYGYSLAFGEGNNFFGNINWLMLKNIELTAVMGSIYQYIHVAFQGSFACITVGLIVGALAERIRFSAVLIFVVVWLTLSYIPIAHMVWGGGLLASHGALDFAGGTVVHINAAIAGLVGAYLIGKRVGFGKEAFKPHNLPMVFTGTAILYIGWFGFNAGSAGTANEIAALAFVNTVVATAAAILGWIFGEWALRGKPSLLGACSGAIAGLVGVTPACGYIGVGGALIIGVVAGLAGLWGVTMLKRLLRVDDPCDVFGVHGVCGIVGCIMTGIFAASSLGGVGFAEGVTMGHQLLVQLESIAITIVWSGVVAFIGYKLADLTVGLRVPEEQEREGLDVNSHGENAYNA
notes: Ammonium transporter AmtB; source: bacterial two-hybrid fusion, in E. coli BTH101 (cyaA-)
On to B5, for which, in experiment [4], the binding entry is “no binding (tested: below 150 Miller units (background))”.

B6: DcuS fused to the T18 or T25 domain of adenylate cyclase (natural protein, E. coli, UniProt P0AEC8 1-543, looked up)
chain: MRHSLPYRMLRKRPMKLSTTVILMVSAVLFSVLLVVHLIYFSQISDMTRDGLANKALAVARTLADSPEIRQGLQKKPQESGIQAIAEAVRKRNDLLFIVVTDMQSLRYSHPEAQRIGQPFKGDDILKALNGEENVAINRGFLAQALRVFTPIYDENHKQIGVVAIGLELSRVTQQINDSRWSIIWSVLFGMLVGLIGTCILVKVLKKILFGLEPYEISTLFEQRQAMLQSIKEGVVAVDDRGEVTLINDAAQELLNYRKSQDDEKLSTLSHSWSQVVDVSEVLRDGTPRRDEEITIKDRLLLINTVPVRSNGVIIGAISTFRDKTEVRKLMQRLDGLVNYADALRERSHEFMNKLHVILGLLHLKSYKQLEDYILKTANNYQEEIGSLLGKIKSPVIAGFLISKINRATDLGHTLILNSESQLPDSGSEDQVATLITTLGNLIENALEALGPEPGGEISVTLHYRHGWLHCEVNDDGPGIAPDKIDHIFDKGVSTKGSERGVGLALVKQQVENLGGSIAVESEPGIFTQFFVQIPWDGERSNR
notes: Membrane embedded sensor histidine kinase DcuS, E. coli; also called DcuS-T18; DcuS-T25; source: bacterial two-hybrid fusion (pUT18 or pKNT25), in E. coli BTH101 (cyaA-); not shown: T18 or T25 domain of Bordetella pertussis adenylate cyclase CyaA, C-terminal, kept
For the molecule B6, the binding result in experiment [1] is “no binding”.
